# The list shows a part of the results.
# Test system: PfHDP1 homeodomain (GST-tagged)
# Test: gcPBM binding intensity (ln(normalized median fluorescence intensity)); higher = stronger DNA binding
# How it was run: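 GST-tagged P. falciparum DNA-binding domains produced in E. coli were incubated for 1 h on an Agilent 4 × 180k array of primer-extended double-stranded 36-bp intergenic genomic probes with negative controls. Binding intensity is the highest Masliner-normalised natural-log median intensity across replicate spots of either probe orientation, with bound protein detected by Alexa488 anti-GST antibody at 488 nm.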
row,Sequence,gcPBM binding intensity (ln)
1,TAAAAATATATTATATGTACGTATAACAATGTATGA [XGTACX_site8606],6.73
2,ACCTAATATTATTAAACATGCACATTTGCATAAATA [TGCATGCA_site870],10.1
3,CAAAATGAAAGGAAAAGTACATTTAAATGAATAAAT [XGTACX_site8241],6.57
4,AAATAATTCAAAAAAACACACAAATTACAAAATAAA [CACACA_site269],6.68
5,GCAAAATAAAGAAGCACACAAAAATGAAATATATAT [CACACA_site3651],6.77
6,CATATTTATAAATATAAACACACAACATTATATGCA [CACACA_site9065],6.82
7,TTTAATTAATAATAATATAAATTGTTCTTTTTTTTT [GTGCAC_negctrl_site176],5.72
8,ACTAGTAAATTTATATGTACATATATATATATATAG [XGTACX_site2502],6.86
9,TCTTGGTATATTCAATATATGATTTATATAATTCAA [CACACA_negctrl_site818],6.36
10,AAAAAAAATACATACATACACACATATATATATATA [CACACA_site912],9.29
11,ATTTATATATATCATACACACTAATATGTATATTAT [CACACA_site5816],6.72
12,TATACGTAATAATATGCACACAAATAAACTTTATAA [CACACA_site9166],9.59
13,TGATAACTAAATACATGTACAAATTAAAAAGAAAAA [XGTACX_site3080],6.28
14,TAATGATTATATGACTGTACATTTGTAGGTATAATT [XGTACX_site3373],6.4
15,TTATTTTTTTCAACAAGTACTAATACAAAATAAAAC [XGTACX_site6460],6.66
16,GATTAAATCGATAATACACACTAAATGTAAAACATT [CACACA_site4248],6.28
17,TTGTATTATTAAATTATAAAACCTATAATTATGGAT [GTGCAC_negctrl_site340],6.2
18,ATCTTTCGAACATGTACACACAGAAAAAAAAAAAAA [CACACA_site5393],6.36
19,TTATATGCATCCAAAAAGGAATGTTTTTAGAGAATC [CACACA_negctrl_site1062],6.21
20,TAAAAAGTATATGGTCGTACACTTTTGATTAATACA [XGTACX_site7804],6.02
21,GTGTAGGCAAAAAGTTGTACGCCTAAAATCTATATA [XGTACX_site8912],5.97
22,GTACATATAAATATTACACACATTTTCATTTTTAAC [CACACA_site1986],6.8
23,AAATCGAACAAATTATGTACTAAAAAAAAAATTTAT [XGTACX_site6399],6.1

row,Sequence,gcPBM binding intensity (ln)
1,AATAATTTGAAGGTGATAGTATTACATGGGAAATCA [CACACA_negctrl_site301],6.36
2,ACTCTCTTATATTAAACACACATATATATATGTATA [CACACA_site2703],7.05
3,TCAAACAAAAAAGAAACACACACTAATTAAATTTTC [CACACA_site1101],6.2
4,TTTCCTTATAAAAATACACACAAACTTTCATTAAAA [CACACA_site5953],6.52
5,TCATATTATTATATATGTACATACCAATATATTATA [XGTACX_site2988],6.49
6,TAGATATGTCTAAAAAGTACTTTCTATAACAATTCT [XGTACX_site6678],6.28
7,AGAGGGGAAAACATGATGCACTAGTATAACCAAGAA,8.51
8,AACACCAAACAAAGGTGTACATATAGGAAAAAATCT [XGTACX_site1006],6.55
9,TATCACATATTATGATGTACAAAGATTCTGACTAAT [XGTACX_site2770],6.14
10,TACACGCAGAAACACACACACACACCCATATATATA [CACACA_site637],7.14
11,TAGATAAAATTAAAATGTACAAACCTTTTCCCTTAT [XGTACX_site1136],5.97
12,ATATATATATATGATACATGCATATATTTTTTCTTC [TGCATGCA_site216],8.93
13,TATATATATATAAAGGTGCATATCTTTACGTATGTC [GTGCAC_site9665],9.23
14,ATTTTATTTTTTAATAGTACTCATTTTTTATGTGAA [XGTACX_site5494],6.48
15,TTTTTTTTATCAAATTGTACATATACAAAGGTGATC [XGTACX_site8054],6.32
16,ATATATATATATATATGTACTTATTTATTTTATATA [XGTACX_site8810],9.21
17,AGAGAAGAAAACAAAACACACACATATATCTTAATA [CACACA_site8699],6.86
18,CCCAATAATTAAACAACACACATATATATCTGTAAT [CACACA_site5667],6.99
19,AGGGGCGAAACAAAGGTGCTTTTATAAAATATGTAA,6.55
20,ATAAAATGGGCAAACACACACAAAAAAAAGATATAT [CACACA_site1648],7.41
21,AGAAATCATCTGAATTGTACTAACAATTTTTTTTAA [XGTACX_site6191],5.88
22,TATTATAATAAAATATGTACACACATACACACATAT [XGTACX_site2360],7.07

# Reference: the supplement of paper PMC11417369
